Measured values published in the supplement of paper PMC11417369.
± gives the standard deviation of the averaged measurements. The list shows a part of the results.

Tested on: PfAP2-EXP AP2 domain (GST-tagged)
Assay: gcPBM binding intensity (ln(normalized median fluorescence intensity)); higher = stronger DNA binding
In short: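 Each value is the highest Masliner-normalised natural-log median intensity across replicate spots of either orientation of a probe. The probes were primer-extended double-stranded 36-bp intergenic genomic sequences on an Agilent 4 × 180k array, alongside negative controls, exposed for 1 h to GST-tagged P. falciparum DNA-binding domains expressed in E. coli. Bound protein was picked up with Alexa488 anti-GST antibody and scanned at 488 nm.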

Sequence	gcPBM binding intensity (ln)
ATAATTCTTTATTATAGTACACAAACTTTCAAAACA [XGTACX_site3597]	8.45 ± 0.27
AAAAAAGAGGGATACACACAAACATATATATATATA [CACACA_site2243]	10.1 ± 0.33
AAGAAAATATAAATATGTACTTAATAATTTATTTAT [XGTACX_site8100]	8.16 ± 0.37
TTTATATCTTATTATAGGAAAATGAATATTTTCTCT [TGCATGCA_negctrl_site478]	8.19 ± 0.36
ACAAAACATATATTCTGTACATATATAATGGTGACT [XGTACX_site6796]	8.67 ± 0.3
TATTAAAATAACATACGTACATAAGTATATAAAAAA [XGTACX_site1769]	8.55 ± 0.21
AGGATACACGGACACACACACATATATATATATATA [CACACA_site4654]	10.2 ± 0.28
AAAATAAAAAGAAATTGTACGTATAATAATATATTT [XGTACX_site7593]	8.72 ± 0.47
TTTATTTTAAAATTTACACACAAAAGGATTTATAGA [CACACA_site2338]	8.38 ± 0.45
TATATTAATTAACAGTGTACAAAAAAAAATAAAAAA [XGTACX_site3702]	8.82 ± 0.42
TGTATAAATAAATGCGTACACACTAATAAAAAAAAA [CACACA_site858]	8.59 ± 0.49
AAAAAAAATATGATGAGTACACAATAATACATGCAA [XGTACX_site6999]	9.14 ± 0.16
CAACTTTTTGAAAATTGTACATGACATATATATATA [XGTACX_site260]	10 ± 0.35
TTATGTAAATAATTTTGTACTTAAATTATTATATAA [XGTACX_site1491]	8.08 ± 0.4
AATATCTAAAATGTGTGTACATAATATTTTTAATAT [XGTACX_site3831]	8.3 ± 0.27
GTGGTTATATATTAAGTGCATATTATAATTTTAAAC	8.6 ± 0.085
ATAGATAAAAAATTATTTATTTAGAATTTTTATGTA [CACACA_negctrl_site400]	7.91 ± 0.32
TGTCTTTATATATATTTATTTTTTAGTATTACATAA [CACACA_negctrl_site21]	8.43 ± 0.27
ATGGAATATTTCATGATTTTTTTAATTTTTTTATTG [XGTACX_negctrl_site55]	8.1 ± 0.53
TATCTTTTTTTTAATACACACAAATTTATGAAAGTA [CACACA_site7879]	8.38 ± 0.33
ATTTTCATATTTTTATGTACATATTATAAGAATATA [XGTACX_site3691]	8.61 ± 0.42
TTCGTTAAAAATAAATGTACATAAATAAACCTTATT [XGTACX_site621]	8.39 ± 0.33

Sequence	gcPBM binding intensity (ln)
ATTTTAATAAACACTTACATGTTTTCCAAATTGTAT [CACACA_negctrl_site1807]	8.41 ± 0.3
ATATTAAGAATGTATACATGCATATATATATAGTAC [TGCATGCA_site219]	9.17 ± 0.42
TATTAATAAATATGTTTACACACGAAAATACATTTT [CACACA_site1012]	8.45 ± 0.54
AAAGATTTAGAAAATGAACACACGAGCACCCACCGA [CACACA_site1017]	9.21 ± 0.54
GAAAGAGAGATATATACACACATATTTATATTTTTA [CACACA_site7057]	8.18 ± 0.48
AAAAGTCTCTTTTTAGTGCACATTTTATTTAAATAT	8.83 ± 0.27
CAGATAAGGTGAAGCTGTACAAAAATGTTTTATAAC [XGTACX_site6783]	8.74 ± 0.4
TCTAATTATCACATTGCACACACATTTCCTTTTACA [CACACA_site9140]	8.92 ± 0.33
TAATTAATTTATGTAACACACATTGTTGATTCAATA [CACACA_site1098]	8.56 ± 0.43
TTATACTGTATAGTCGCACACAAAAATATAAAATAT [CACACA_site3869]	8.71 ± 0.47
AATACACCCAGACACACACACAAAAAAAAAAAAAAA [CACACA_site513]	8.12 ± 0.43
AAAAGAGAAATGGGCACACACACACCGATTATATAT [CACACA_site4942]	8.88 ± 0.53
TTTGAATCCTTATATACACACATTATGTAATATTAT [CACACA_site561]	8.5 ± 0.35
ATATATATATTAAATACACACATTTTTGATTAGGTT [CACACA_site3119]	9.405 ± 0.078
AATATAAAAATGTTTACACACACACCCAAATATATT [CACACA_site2511]	8.91 ± 0.45
AGAATTACTTAAAAAAGTACATAAAATTATTTAAAA [XGTACX_site2205]	8.18 ± 0.31
ATTACATTTTTAATGCGTACTAAAAATGTATATAAG [XGTACX_site6384]	8.59 ± 0.38
TTATTATCTCTTGTCATTATTATATACTAAGAAGTA [CACACA_negctrl_site410]	8.53 ± 0.47
AATATGAAATATATTACACACATTTATATGTTGAAA [CACACA_site1427]	8.22 ± 0.36
AAAAGGAAAATACTAGCACACAATATATAATAAACA [CACACA_site285]	8.73 ± 0.6
ATATTGTAAGTAAAATGTAATAAATATAATAAAATA [CACACA_negctrl_site697]	8.6 ± 0.4
TTAGTATATACATTTGCACACATTATTTTTTAACAT [CACACA_site2618]	8.98 ± 0.4
